Results as given in the BET-seq Pho4 binding data (Le et al. 2018).
This is one part of the list. Values were computed here from the reads of four pooled replicates and scatter widely.

These sequences were tested against T1, Pho4 (S. cerevisiae) (UniProt P07270) (assay: relative binding free energy (BET-seq); higher = weaker binding). Details: reference: library average.
T1 sequence: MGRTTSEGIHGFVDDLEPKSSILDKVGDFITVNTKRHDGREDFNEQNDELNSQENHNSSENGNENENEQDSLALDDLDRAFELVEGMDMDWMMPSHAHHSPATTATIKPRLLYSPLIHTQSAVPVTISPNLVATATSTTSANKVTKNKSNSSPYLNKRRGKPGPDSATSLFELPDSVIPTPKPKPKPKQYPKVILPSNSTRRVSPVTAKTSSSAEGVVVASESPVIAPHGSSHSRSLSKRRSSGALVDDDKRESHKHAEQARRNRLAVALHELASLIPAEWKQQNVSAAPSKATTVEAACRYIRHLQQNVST
In the case of TGAGGCACGTGGTTTA, the “relative binding free energy” value is reported as -0.1 kcal/mol. GTAATCACGTGTGGGG was tested, and the “relative binding free energy” value was 0.27 kcal/mol. With GGGCCCACGTGGGAAG the “relative binding free energy” value was -0.04 kcal/mol. GGAAGCACGTGTGCAG was tested, and the “relative binding free energy” value was -0.02 kcal/mol. For TATCTCACGTGGGGGA, the “relative binding free energy” value was 0.08 kcal/mol. GTGCGCACGTGTTGAT was tested, and the “relative binding free energy” value was -0.14 kcal/mol. AAGGGCACGTGAGGGC was tested, and the “relative binding free energy” value was 0.04 kcal/mol. In the case of TTACTCACGTGGTTCT, the “relative binding free energy” value is reported as 0.26 kcal/mol. In the case of GTGCTCACGTGCTGGA, the “relative binding free energy” value is reported as 0.24 kcal/mol. For AGTCTCACGTGACTGG, the “relative binding free energy” value was 0.37 kcal/mol. In the case of ACTGACACGTGTAGGG, the “relative binding free energy” value is reported as 0.11 kcal/mol. In the case of GCGTGCACGTGGTTTA, the “relative binding free energy” value is reported as -0.1 kcal/mol. With TATAACACGTGGTGTG the “relative binding free energy” value was -0.13 kcal/mol. For TGGCTCACGTGAGGTT, the “relative binding free energy” value was 0.3 kcal/mol. With TAGTGCACGTGACGGA the “relative binding free energy” value was 0.21 kcal/mol. GTTAGCACGTGGTCGA was tested, and the “relative binding free energy” value was -0.08 kcal/mol. For GGTGACACGTGCGGGG, the “relative binding free energy” value was 0.02 kcal/mol. In the case of TTTGGCACGTGCTTCT, the “relative binding free energy” value is reported as -0.21 kcal/mol. With TGGCGCACGTGAAGCG the “relative binding free energy” value was 0.13 kcal/mol. With TGGGACACGTGCTTGG the “relative binding free energy” value was -0.06 kcal/mol. In the case of CGGTGCACGTGGCAGT, the “relative binding free energy” value is reported as -0.18 kcal/mol. In the case of TTAGGCACGTGTGAAT, the “relative binding free energy” value is reported as -0.1 kcal/mol. For CGGTACACGTGGGGGA, the “relative binding free energy” value was -0.15 kcal/mol. For TTAATCACGTGTATTA, the “relative binding free energy” value was 0.03 kcal/mol. With ATGGTCACGTGCATTG the “relative binding free energy” value was 0.05 kcal/mol. TTCATCACGTGTTGAG was tested, and the “relative binding free energy” value was 0.14 kcal/mol. TATGGCACGTGGCGTT was tested, and the “relative binding free energy” value was -0.26 kcal/mol. In the case of TTCGACACGTGTGTAG, the “relative binding free energy” value is reported as 0.09 kcal/mol. With TTTTACACGTGGCGGG the “relative binding free energy” value was 0.14 kcal/mol. For CGAGGCACGTGGGGTC, the “relative binding free energy” value was -0.21 kcal/mol. With TATAGCACGTGGCTAG the “relative binding free energy” value was -0.16 kcal/mol. For TTCTTCACGTGTATGT, the “relative binding free energy” value was 0.24 kcal/mol. For GTTAACACGTGTTGAG, the “relative binding free energy” value was -0.02 kcal/mol. CGTGTCACGTGGTGGC was tested, and the “relative binding free energy” value was -0.01 kcal/mol. ACGTACACGTGTGTTG was tested, and the “relative binding free energy” value was -0.03 kcal/mol. In the case of TCCGGCACGTGTGGGG, the “relative binding free energy” value is reported as -0.02 kcal/mol. With GACTTCACGTGTGGAG the “relative binding free energy” value was 0.39 kcal/mol. For AGTATCACGTGTAGGC, the “relative binding free energy” value was 0.08 kcal/mol. For GGGGACACGTGAGTTA, the “relative binding free energy” value was 0.22 kcal/mol. TTAGTCACGTGTTTCG was tested, and the “relative binding free energy” value was 0.05 kcal/mol. TGGTTCACGTGGGTAG was tested, and the “relative binding free energy” value was 0.2 kcal/mol. In the case of GTAAGCACGTGAAAGG, the “relative binding free energy” value is reported as 0.19 kcal/mol. GTCAGCACGTGAATGG was tested, and the “relative binding free energy” value was 0.08 kcal/mol. With TGGAGCACGTGTAGTT the “relative binding free energy” value was 0 kcal/mol. For TATATCACGTGGATGA, the “relative binding free energy” value was 0.13 kcal/mol. With GGTTACACGTGTCTTT the “relative binding free energy” value was 0.2 kcal/mol. In the case of GGAAACACGTGTGGGA, the “relative binding free energy” value is reported as -0.1 kcal/mol. With ATGTACACGTGGCTTA the “relative binding free energy” value was -0.04 kcal/mol. For ATGCACACGTGAAGGG, the “relative binding free energy” value was 0.15 kcal/mol. For TGAGCCACGTGGTGGG, the “relative binding free energy” value was -0.17 kcal/mol. TGATTCACGTGGAAGT was tested, and the “relative binding free energy” value was 0.31 kcal/mol. ATGTTCACGTGGCATG was tested, and the “relative binding free energy” value was 0.16 kcal/mol. In the case of AGGGTCACGTGCGTTT, the “relative binding free energy” value is reported as 0.08 kcal/mol. GGATGCACGTGGCTGG was tested, and the “relative binding free energy” value was -0.12 kcal/mol. With GAGAGCACGTGTTAGT the “relative binding free energy” value was -0.15 kcal/mol. ATTGCCACGTGGTCGT was tested, and the “relative binding free energy” value was -0.16 kcal/mol. For GCCGGCACGTGAAGGT, the “relative binding free energy” value was 0.24 kcal/mol. With TTTAGCACGTGAGCTA the “relative binding free energy” value was 0.16 kcal/mol.
